Data: PubChem BioAssay AID686971 (National Center for Advancing Translational Sciences (NCATS), 2013)
Hit rate of the full screen: of about 360,000 compounds, about 7,500 (2.1%) were called active. Inconclusive results, whose numbers are uncertain, are shown with a selection of clear calls. The call rests on the fitted dose curve; in most records, active means well fitted cell-killing curve with a large enough effect; inconclusive means small, poorly fitted or top-dose-only effect, or effect the other way, or another doubt; inactive means no such curve, though single readings can be large or run the other way. No potency is given beside an inconclusive call; the fits are too rough.

Experiment: qHTS for induction of synthetic lethality in tumor cells producing 2HG: qHTS for the HT-1080-IDH1KD cell line
Details: HT-1080 IDH1 knockdown viability, ATP luminescence, 48 h; series mostly up to 46.1 µM
In short: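 Luminescent ATP read-out (CellTiter-Glo, 10 min at room temperature) after 48 h compound exposure at 37 °C gave viability of IDH1-knockdown HT-1080 cells. Activity was normalised to DMSO and cell-free wells, then fitted as concentration-response curves.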
Potency means the concentration at half of the fitted maximal effect; tags describe the fitted curve by direction and shape.

Row | Structure (SMILES) | Potency
1 | O=C(Nc1nc(-c2ccccn2)cs1)c1ncc(Cl)c(Cl)c1Cl | inconclusive [cytotoxic, single point]
2 | Cc1sc(-n2c(C)cc(/C=N/n3cnnc3)c2C)c(C#N)c1C | inconclusive [cytotoxic, single point]
3 | CCCS(=O)(=O)NC(=O)C1(C)CCN(C(=O)c2cccc3ccccc23)C1 (centres undefined) | inconclusive [rising, single point]
4 | CC(=O)Nc1ccc(SCC(=O)c2cc(C)n(-c3ccccc3F)c2C)cc1 | inactive
5 | COc1ccc(NC(=O)c2cc(-c3cc(F)ccc3OC)n[nH]2)c(OC)c1 | inconclusive [cytotoxic, single point]
6 | COc1ccc2cc(Br)ccc2c1CC(=O)NC1CC(C)(C)NC(C)(C)C1 | active: 16.4 µM
7 | CC1=Nc2ccccc2/C1=C\c1nc(-c2ccc(F)cc2)oc1O | inconclusive [cytotoxic, single point]
8 | COc1ccc(O)c(/C=N\NC(=O)CCn2nnc3ccccc32)c1 | inconclusive [cytotoxic, single point]
9 | CN(CC(=O)Nc1ccccc1Br)C(=O)CNC(=O)Cc1cccc2ccccc12 | inactive
10 | CCc1nc2ccc(C(=O)NC3CCN(Cc4ccccc4)CC3)cn2c1N(C)Cc1cc2ccccc2s1 | inconclusive [cytotoxic, single point]
11 | COc1ccccc1CNc1nc(NCc2cccc(OC)c2OC)c2sccc2n1 | inconclusive [cytotoxic, single point]
12 | COc1ccc(C(O)c2nc(-c3cc(F)cc(F)c3)cs2)cc1 (centres undefined) | inconclusive [cytotoxic, single point]
13 | Cc1ccc(-c2cc(C(F)F)n3ncc(C(=O)N4CCc5ccccc54)c3n2)cc1 | active: 2.31 µM
14 | CCOCCn1c(SCc2ccc(C)cc2)nc2c1c(=O)[nH]c(=O)n2C | inactive
15 | COC(=O)[C@H](Cc1ccccc1)NC(=O)NCc1cccs1 | inconclusive [cytotoxic, partial curve]
16 | CC(=NNC(=S)N1CC2CCC(CC2)C1)c1cccc(C)n1 | inconclusive [cytotoxic, single point]
17 | CCOC(=O)c1c(CN2CCN(CC#N)CC2)n(C)c2cc(Br)c(OC)cc12 | active: 20.6 µM
18 | COc1ccc(-n2c(C)nc3c(cnn3-c3ccccc3)c2=O)cc1 | inconclusive [cytotoxic, single point]
19 | COc1ccc(Nc2nc(-c3cccc([N+](=O)[O-])c3)nc3ccccc23)cc1 | inconclusive [cytotoxic, single point]
